Data from PubChem BioAssay AID485360 (National Center for Advancing Translational Sciences (NCATS), 2010).
The campaign covered roughly 230,000 compounds. About 1,500 (0.65%) were called active. This list was built around the results that the source calls inconclusive (neither active nor inactive); the mix of calls is not that of the screen. Calls follow the shape of the dose curve; as a rule, active = well fitted inhibition curve with a large enough effect; inconclusive = small, poorly fitted or top-dose-only effect; inactive = no such curve, though single readings can be large or run the other way. A potency beside an inconclusive call is a rough fit, not a confirmed value.

The compounds below were run against Lethal(3)malignant brain tumor-like protein 1 (Homo sapiens) (UniProt Q9Y468) (assay: qHTS Assay for the Inhibitors of L3MBTL1). Details: AlphaScreen L3MBTL1–H3K9me1 peptide binding; activity, negative = inhibition: at 57.1 µM (top of the series).
In short: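 First, the protein-peptide complex forms for 30 min at room temperature (L3MBTL1 50 nM, biotinylated H3K9me1 peptide 75 nM). Next, compounds are pin-transferred and incubated 30 min. Finally, AlphaScreen beads are added and read after 30 min.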
% is scaled to controls: 0 for no effect and ±100 for the full control effect; potency is read from the fitted curve at half-maximal effect; tags tell the direction and shape of the fitted curve.
Also: nearly all actives have a fitted effect of over 60% in size.

Chain of UniProt Q9Y468 (Q9Y468 whole entry, looked up): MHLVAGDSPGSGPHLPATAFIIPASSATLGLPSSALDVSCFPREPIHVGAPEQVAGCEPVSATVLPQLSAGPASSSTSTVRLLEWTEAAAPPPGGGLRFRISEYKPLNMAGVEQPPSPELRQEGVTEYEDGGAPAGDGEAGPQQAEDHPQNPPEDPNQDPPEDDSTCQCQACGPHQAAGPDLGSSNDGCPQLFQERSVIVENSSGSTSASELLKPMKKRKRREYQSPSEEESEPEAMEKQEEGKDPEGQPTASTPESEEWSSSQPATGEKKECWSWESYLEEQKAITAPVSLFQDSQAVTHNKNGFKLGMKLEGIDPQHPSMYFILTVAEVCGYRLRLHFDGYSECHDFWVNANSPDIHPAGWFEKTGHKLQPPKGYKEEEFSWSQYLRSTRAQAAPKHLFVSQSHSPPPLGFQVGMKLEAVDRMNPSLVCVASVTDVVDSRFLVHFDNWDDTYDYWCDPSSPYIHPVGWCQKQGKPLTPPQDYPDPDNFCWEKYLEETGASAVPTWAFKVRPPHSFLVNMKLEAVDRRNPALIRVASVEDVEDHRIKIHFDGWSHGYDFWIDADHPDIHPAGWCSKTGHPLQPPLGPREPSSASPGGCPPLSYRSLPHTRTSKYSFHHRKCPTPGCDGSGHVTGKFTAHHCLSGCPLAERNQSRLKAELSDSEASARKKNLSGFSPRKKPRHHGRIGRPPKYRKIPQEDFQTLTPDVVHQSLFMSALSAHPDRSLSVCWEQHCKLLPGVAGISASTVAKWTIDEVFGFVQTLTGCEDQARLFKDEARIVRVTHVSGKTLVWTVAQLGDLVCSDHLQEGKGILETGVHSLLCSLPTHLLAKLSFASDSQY

SMILES	Potency	activity, negative = inhibition
CC(=O)c1ccc2c(c1)C1C=CCC1C(C(=O)O)N2 (centres undefined)	active: 1.26 µM	–
O=C(COC(=O)c1ccc(F)cc1F)Nc1cccnc1Cl	inactive	–
Nc1nccnc1C(=O)OCC(=O)c1ccc[nH]1	inconclusive: 22.4 µM [inhibitor, single point]	–
Cc1nnc2c(NC3CCCC3)nc3ccccc3n12	–	inactive: 6.42% [at 11.4 µM]
COC(=O)c1cc(C#N)c(=O)[nH]c1C	inactive	–
CCCN1C(C)C(C(=O)OCC)=CN(Cc2cccc(I)c2)S1(=O)=O (centres undefined)	inactive	–
CC(=O)Nc1ccc(S(=O)(=O)NC2(C(F)(F)F)C(=O)NC(C)=C2C#N)cc1 (centres undefined)	inconclusive: 39.8 µM [inhibitor, partial curve, poor fit]	–
Cc1cccc(N=N/C(=C\O)C(=O)c2cccs2)c1	inconclusive: 3.55 µM [inhibitor, full curve, poor fit]	–
Oc1ccc(/C=N/N2CCOCC2)c(O)c1O	active: 14.1 µM	–
O=C(NCc1nc2ccccc2[nH]1)C1=C[C@H](c2ccc(C(F)(F)F)cc2)C[C@H](OCc2ccc(CO)cc2)O1	inconclusive: 3.16 µM [inhibitor, single point]	–
Cc1ccc2nc(-c3ccccc3O)c(Nc3ccc4c(c3)OCCO4)n2c1	inconclusive: 39.8 µM [inhibitor, single point]	–
COc1ccc(NC(=O)COC(=O)CC23CC4CC(CC(C4)C2)C3)c([N+](=O)[O-])c1	inconclusive: 39.8 µM [inhibitor, partial curve]	–
Cc1c(C(=O)NCc2ccco2)oc2ccc(Br)cc12	inconclusive: 22.4 µM [inhibitor, partial curve, poor fit]	–
C(/CCc1ccccc1)=N\Nc1nc2ccccc2[nH]1	inconclusive: 17.8 µM [inhibitor, partial curve]	–
CNC(=O)NC(=O)C(C)OC(=O)c1c2c(nc3ccccc13)/C(=C/c1cccs1)CC2 (centres undefined)	inconclusive: 39.8 µM [inhibitor, single point]	–
CN=c1scc(-c2ccccc2Br)n1/N=C/c1ccc[nH]1	inconclusive: 39.8 µM [inhibitor, single point]	–
c1ccc(-c2ccccc2OCCCN2CCCC2)cc1	inconclusive: 39.8 µM [inhibitor, single point]	–
CCN1CCc2c(sc(NC(=S)NC(=O)c3ccccc3)c2C#N)C1	inactive	–
Cn1c(NCCc2ccccc2)cc(=O)n(C)c1=O	inactive	–
CC(=O)Nc1ccccc1C(=O)C(=O)Nc1cccc(C(=O)N2CC(C)CC(C)C2)c1 (centres undefined)	inconclusive: 39.8 µM [inhibitor, single point]	–
Cc1ccc(C(C)(C)C)c(OCCCCN2CCCC2)c1	inconclusive: 35.5 µM [inhibitor, single point]	–
Nc1c(NCCN2CCCCC2)c2ccccc2oc1=O	inconclusive: 10 µM [inhibitor, partial curve]	–
Fc1ccc(Cc2nnc(-c3cccs3)o2)cc1	inconclusive: 7.08 µM [inhibitor, single point]	–

SMILES	Potency	activity, negative = inhibition
Cc1nc(N)sc1-c1csc(Nc2ccc(S(N)(=O)=O)cc2)n1	inactive	–
O=C(Nc1ccc(Cl)cc1)Nc1cc(S(=O)(=O)N2CCOCC2)ccc1N1CCCC1	inactive	–
COc1ccc(NC(=O)c2c3c(nc4ccccc24)CCC3)cc1S(=O)(=O)N1CCOCC1	active: 31.6 µM	–
COc1ccc(N2CCN(c3nc(Cl)nc(N4CCOCC4)n3)CC2)cc1	inconclusive: 5.62 µM [inhibitor, single point]	–
C(=C\c1ccccc1)/C=N/Nc1nc2ccccc2[nH]1	inconclusive: 12.6 µM [inhibitor, partial curve]	–
O=C1OCCC1Sc1nnc(-c2ccc(O)cc2)o1 (centres undefined)	inconclusive: 0.891 µM [inhibitor, full curve, poor fit]	–
CC(C)(C)c1ccc(OCCCNCc2ccccc2)cc1	inactive	–
CCOc1ccc(CC(=O)N2CCN(c3ccc(N4CCOCC4)nn3)CC2)cc1OCC	inconclusive: 35.5 µM [inhibitor, single point]	–
CC(=O)c1cccc(NC(=O)CCc2nc3sc4c(c3c(=O)[nH]2)CCCC4)c1	inconclusive: 35.5 µM [inhibitor, single point]	–
O=C(O)c1cc(-c2ccc(/C=c3\sc4nc5ccc(Br)cc5n4c3=O)o2)ccc1Cl	active: 28.2 µM	–
CCCc1cc(=O)[nH]c(SCC(=O)Nc2ccc3ccccc3c2)n1	inconclusive: 0.794 µM [inhibitor, single point]	–
CC(=O)NC(c1ccco1)c1cc(Br)c2cccnc2c1O (centres undefined)	inconclusive: 39.8 µM [inhibitor, single point]	–
Cc1ccc(CN2CCN(/N=C/c3cccs3)CC2)cc1	inactive	–
C[C@H](CO)N1C[C@H](C)[C@@H](CN(C)S(=O)(=O)c2cn(C)cn2)Oc2ccc(NC(=O)Nc3ccc4c(c3)OCO4)cc2C1=O	inconclusive: 0.708 µM [inhibitor, single point]	–
Cc1ccc(-c2nnn(CC(=O)N(Cc3ccco3)C(C(=O)NC3CCCC3)c3cccs3)n2)o1 (centres undefined)	inconclusive: 5.01 µM [inhibitor, single point]	–
Cc1[nH][nH]c(=O)c1C(c1ccc(-c2ccc(F)cc2)o1)c1c(C)[nH][nH]c1=O	inconclusive: 31.6 µM [inhibitor, partial curve]	–
Cc1noc(C)c1NC(=O)N(C)C[C@H]1Oc2ccc(NC(=O)Cn3cnnn3)cc2C(=O)N([C@H](C)CO)C[C@@H]1C	inactive	–
COc1ccc(C(CNC(=O)c2ccc(S(=O)(=O)N3CC(C)CC(C)C3)cc2)N(C)C)cc1 (centres undefined)	inconclusive: 0.141 µM [inhibitor, full curve, poor fit]	–
CC1(c2ccc3noc(-c4cccc(F)c4)c3c2)OCCO1	inconclusive: 0.1 µM [inhibitor, full curve, poor fit]	–
CCCC(=O)NC(c1ccccc1)c1ccc2cccnc2c1O (centres undefined)	inconclusive: 39.8 µM [inhibitor, single point]	–
CC1(C)Nc2ccc(O)cc2-c2c1ssc2=S	inconclusive: 17.8 µM [inhibitor, partial curve]	–
COCCN1C(=O)c2oc3c(C)cc(C)cc3c(=O)c2C1c1cccc(O)c1 (centres undefined)	inconclusive: 0.794 µM [inhibitor, full curve]	–
CCN(CC)S(=O)(=O)c1ccc(OC)c(NC(=O)C(C)Oc2ccc3c(C)cc(=O)oc3c2)c1 (centres undefined)	inconclusive: 6.31 µM [inhibitor, single point]	–

SMILES	Potency	activity, negative = inhibition
COCc1cc(CN2CCCC2)c(O)c2ncccc12	active: 10 µM	–
C=CCn1c(=NC(=O)c2ccc(S(=O)(=O)N3CCc4ccccc4C3)cc2)sc2cc(S(N)(=O)=O)ccc21	inactive	–
Clc1nssc1=Nc1nncs1	inactive	–
Cc1cc(N2C(=O)C3C4C=CC(C4)C3C2=O)ccc1NC(=O)c1cccs1 (centres undefined)	inconclusive: 39.8 µM [inhibitor, single point]	–
O=S(=O)(c1ccc2c(c1)CCCN2)N1CCCC1	inactive	–
CC(C)S(=O)(=O)C1=NSC2=NC(=O)/C(=C\c3ccc(-c4cccc(C(=O)O)c4)o3)C(=N)N21	active: 12.6 µM	–
O=C1NC(=O)c2cc(NC(=O)C3COc4ccccc4O3)ccc21 (centres undefined)	inconclusive: 0.126 µM [inhibitor, full curve, poor fit]	–
CC1=NN(c2ccc(Cl)cc2)C(=O)/C1=C\c1cccn1-c1ccc(S(N)(=O)=O)cc1	inconclusive: 14.1 µM [inhibitor, partial curve]	–
CC1CN(/C=C/C(=O)C(F)(F)F)CC(C)O1 (centres undefined)	inconclusive: 10 µM [inhibitor, partial curve, poor fit]	–
O=C(CN(c1ccc2c(c1)OCCO2)S(=O)(=O)c1ccccc1)Nc1ccc2c(c1)OCO2	inconclusive: 5.62 µM [inhibitor, single point]	–
COc1ccc(C(=O)OC(C)C(=O)NC2CCCc3ccccc32)cc1OC (centres undefined)	inconclusive: 39.8 µM [inhibitor, single point]	–
Cc1ccc(N2C(=O)[C@@H]3C(c4cccnc4)=NO[C@@H]3C2=O)cc1	inactive	–
S=C(Nc1ccc(Oc2ccccc2)cc1)N(CCCN1CCOCC1)Cc1ccccn1	inconclusive: 0.631 µM [inhibitor, full curve]	–
Cc1ccc(S(=O)(=O)N2CCN(C(=O)COC(=O)/C=C/c3ccccc3[N+](=O)[O-])CC2)c(C)c1	inconclusive: 0.708 µM [inhibitor, single point]	–
O=C(COC(=O)C1CCCCC1)Nc1ccc(S(=O)(=O)N2CCOCC2)cc1	inactive	–
Cc1cc(NS(=O)(=O)c2ccc(NC(=O)Cc3cccs3)cc2)no1	inconclusive: 5.62 µM [inhibitor, single point]	–
Clc1ccc2nc(-c3ccc(Br)s3)cn2c1	inactive	–
c1ccc(-c2nc(N3CCCCCC3)c3ccccc3n2)nc1	inconclusive: 7.08 µM [inhibitor, partial curve]	–
COc1ccc(NC(=O)C2=CC(c3cccs3)=NS(=O)(=O)N2C)cc1	inactive	–
Cc1cc(NC(=O)COc2ccccc2)n(-c2ccccc2)n1	inconclusive: 0.112 µM [inhibitor, full curve, poor fit]	–
COc1cc(CNc2ccc(N3CCN(C(C)=O)CC3)cc2)ccc1OCc1ccccc1	inactive	–
CC1=NN(c2ccc(C(=O)O)cc2)C(=O)/C1=C\c1ccc(OC(=O)c2cccs2)cc1	inconclusive: 39.8 µM [inhibitor, single point]	–
COc1ccc2nc(N=Nc3ccc(N(C)C)cc3)sc2c1	inconclusive: 14.1 µM [inhibitor, partial curve]	–
